Test results as given in PubChem BioAssay AID1240 (Sanford-Burnham Center for Chemical Genomics, 2008).
About 800 (1.6%) of roughly 50,000 compounds showed an effect of 50% or more. This is one part of the list.

target: Bcl-2-like protein 10 (Homo sapiens) (UniProt Q9HD36); test: Phenotype converters, Bcl-B/TR3 peptide binding displacement, primary biochemical FP (AID 1240); settings: GST-Bcl-B / FITC-TR3 peptide fluorescence polarization; stronger effect = higher value; compound at 3.75 mg/L;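 also: 0% = Bcl-B with tracer peptide and DMSO and 100% = tracer peptide lacking Bcl-B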
Chain of UniProt Q9HD36 (Q9HD36 whole entry, looked up): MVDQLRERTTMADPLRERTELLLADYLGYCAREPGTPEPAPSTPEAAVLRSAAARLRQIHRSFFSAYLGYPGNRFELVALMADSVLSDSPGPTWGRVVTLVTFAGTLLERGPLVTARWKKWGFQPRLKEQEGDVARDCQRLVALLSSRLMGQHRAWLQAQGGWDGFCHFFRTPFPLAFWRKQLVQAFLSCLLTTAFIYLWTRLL

SMILES | displacement
O=C(O)CN1C(=O)/C(=C\c2cccc(Cl)c2Cl)SC1=S | 3%
CCOc1ccccc1NC(=O)C1C(c2ccccc2)C1(Cl)Cl (stereo not given) | 1.9%
COc1ccc(Br)cc1/C=N/NC(=O)C1CC(c2ccccc2)(c2ccccc2)C1 | -0.1%
CCOc1cccc2c1NC(C)(C)C(=S)C2=C1SC(C(=O)OC)=C(C(=O)OC)S1 | 30.6%
Cc1c(NC(=O)c2ccc(I)cc2[N+](=O)[O-])c(=O)n(-c2ccccc2)n1C | 3.9%
Cc1ccc2nsnc2c1NC(=O)c1ccccc1F | -2.1%
CCOC(=O)CN1C(=O)/C(=C2\SC(=S)N(c3ccccc3)C2=O)c2ccccc21 | -12.6%
CCC(CC)C(=O)N1c2ccc(F)cc2CCC1C (stereo not given) | 2.8%
CCc1cccc(C)c1NC(=O)C(C(C)C)N1C(=O)c2ccccc2C1=O (stereo not given) | 0.6%
O=C(COc1ccccc1[N+](=O)[O-])Nc1ccc(Cl)c(-c2nc3cc(Cl)ccc3o2)c1 | 47.6%
CCOC(=O)C(=CNc1ccc(Nc2ccccc2)cc1)C(=O)OCC | -2.5%
COC(=O)Nc1sc2c(c1C(N)=O)CCC(C(C)(C)C)C2 (stereo not given) | 10.7%
COc1ccc(C(=O)Cn2c(NCCO)nc3ccccc32)cc1 | 9.2%
CCN1C(=O)C(=Cc2ccc(-c3cccc(C(=O)O)c3)o2)C(=O)N(CC)C1=S | 11.4%
O=c1oc(-c2ccc(Br)cc2)nc2cc(Cl)ccc12 | -4.5%
CC(=O)COc1ccc2c(C)cc(=O)oc2c1C | -13.5%
COCCc1nnc(NC(=O)Nc2ccccc2)s1 | 2.8%
COc1ccc2oc(=O)c(C(=O)Nc3ccc(C)c(Cl)c3)cc2c1 | -16%
COc1ccc2c(c1OC)C(=O)OC2Nc1cc(S(N)(=O)=O)ccc1O (stereo not given) | 3.9%
Cc1cccc(NCc2cccc([N+](=O)[O-])c2)c1 | 9%
Cc1n[nH]c(C)c1CCCOc1ccc(Cl)cc1 | 10%
O=C(NCCN1CCOCC1)c1ccc(Cl)cc1[N+](=O)[O-] | -2.4%
CCOC(=O)Nc1nc2ccc(S(C)(=O)=O)cc2s1 | -2.7%
Cc1ccc(C)c(NC(=S)NC(NC(=O)c2ccccc2F)C(Cl)(Cl)Cl)c1 (stereo not given) | 14.7%
Cc1ccc(N(C(=O)Nc2ccccc2)C2C=CS(=O)(=O)C2)cc1C (stereo not given) | -0.9%
Cn1c(=O)c2c(ncn2CC(=O)Nc2nc3ccccc3s2)n(C)c1=O | 5.4%
O=[N+]([O-])c1cnc(Nc2cccc3nsnc23)c([N+](=O)[O-])c1 | 2.4%
O=C(CSc1nnnn1-c1ccccc1)N1c2ccccc2Sc2ccccc21 | 6.6%
Cc1ccc(C(=O)N/C(=C\c2sccc2C)C(=O)NCC(C)C)cc1 | 6.3%
CC1=C(C(=O)Nc2ccc(Cl)cc2)C(c2ccc(Cl)cc2)NC(=O)N1 (stereo not given) | -6.7%
